# Data as given in PubChem BioAssay AID624417 (National Center for Advancing Translational Sciences (NCATS), 2012).
# Hit rate of the full screen: of about 410,000 compounds, about 6,400 (1.6%) were called active. Inconclusive means that the source gave no clear call. Such entries were picked first, then a sample of the others. The call rests on the fitted dose curve; in most records, active means well fitted inhibition curve with a large enough effect; inconclusive means small, poorly fitted or top-dose-only effect; inactive means no such curve, though single readings can be large or run the other way. No potency is given beside an inconclusive call; the fits are too rough.
# Biological target: Glucagon-like peptide 1 receptor (Homo sapiens) (UniProt P43220)
# Chain of UniProt P43220 (P43220 whole entry, looked up): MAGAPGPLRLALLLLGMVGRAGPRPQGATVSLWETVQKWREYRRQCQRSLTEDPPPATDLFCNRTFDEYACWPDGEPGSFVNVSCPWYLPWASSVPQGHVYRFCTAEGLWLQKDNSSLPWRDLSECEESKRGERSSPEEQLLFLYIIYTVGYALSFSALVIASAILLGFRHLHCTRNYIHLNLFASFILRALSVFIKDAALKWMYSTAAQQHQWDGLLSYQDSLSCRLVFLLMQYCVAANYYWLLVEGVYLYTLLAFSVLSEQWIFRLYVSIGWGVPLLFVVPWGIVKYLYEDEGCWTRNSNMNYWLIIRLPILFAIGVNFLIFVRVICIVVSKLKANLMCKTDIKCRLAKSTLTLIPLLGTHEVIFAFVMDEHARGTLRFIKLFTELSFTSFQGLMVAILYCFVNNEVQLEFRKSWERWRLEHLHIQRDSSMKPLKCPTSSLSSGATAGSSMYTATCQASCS
# Test: qHTS of GLP-1 Receptor Inverse Agonists (Inhibition Mode); further: nearly all actives have a fitted effect of over 55% in size
# Details: HEK293 GLP-1R CRE-luciferase, luminescence, 24 h, GLP-1R form is constitutively active; activity change, negative = inhibition: at 38.3 µM (top of the series) unless noted
# Summary of the method: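 Constitutively active GLP-1R drives a cAMP-responsive luciferase in stably transfected HEK293 cells; test compounds are added after overnight (12 h) attachment and left 24 hr, and signal loss in luminescence marks inhibition.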
# On the % scale 0 is the no-effect control and ±100 the full control effect; potency means the concentration at half of the fitted maximal effect; tags describe the fitted curve by direction and shape.
SMILES,Potency,"activity change, negative = inhibition"
OCCNCCCOc1cc(Cl)ccc1Cl,"inconclusive [inhibitor, single point]",
CC(C)c1ccc(NC2CCCN(C(=O)c3cccs3)C2)cc1 (stereo not drawn),"inconclusive [inhibitor, partial curve, poor fit]",
CC[C@@H](C)[C@H](CNC)NC[C@@H](Cc1cccc2ccccc12)NCCc1cccc(C(F)(F)F)c1,inactive,
O=C(N/N=C/c1ccc(O)cc1)c1cc(-c2ccc3c(c2)OCO3)n[nH]1,"inconclusive [inhibitor, full curve]",
COc1ccc(C(CNC(=O)c2cccc(Br)c2)N2CCCC2)cc1 (stereo not drawn),"inconclusive [inhibitor, partial curve, poor fit]",
CCc1ccc(NC(=O)CN2CCc3ccccc3C2)cc1,inactive,
O=C(NCCN1C(=O)S/C(=C\c2ccc(OC(F)F)cc2)C1=O)c1cnccn1,"inconclusive [inhibitor, single point]",
Cc1ccc(CN(C(=O)C(F)(F)F)C(C(=O)NC2CCCCC2)c2ccco2)cc1 (stereo not drawn),"inconclusive [inhibitor, single point]",
CC(Nc1cc(N2CCN(C(=O)C(C)(C)C)CC2)ccc1[N+](=O)[O-])c1ccccc1 (stereo not drawn),"inconclusive [inhibitor, single point]",
O=C(Nc1ccc2c(c1)CCC2)c1ccc(Cl)nc1,"inconclusive [inhibitor, single point]",
CCn1c(SCc2cccc(C(F)(F)F)c2)nnc1-c1ccco1,"inconclusive [inhibitor, partial curve, poor fit]",
CC1(C(=O)NCC2CCCCC2)CCN1CCc1ccccc1 (stereo not drawn),"inconclusive [inhibitor, single point]",
Cc1cccc(CNC(=O)c2sc(=O)n(Cc3c(C)cccc3C)c2C)c1,"inconclusive [inhibitor, single point]",
COC(=O)c1ccccc1C(=O)c1cccc2ccccc12,"inconclusive [inhibitor, partial curve, poor fit]",
CCn1c(C(=O)N2CCc3ccccc3C2)cc2sccc21,"inconclusive [inhibitor, single point]",
Cc1ccccc1OCCCCn1c(CO)nc2ccccc21,"inconclusive [inhibitor, single point]",
Cc1nc2c(OCc3ccc(Cl)cc3)cccn2c1N(C)Cc1cccs1,"inconclusive [inhibitor, single point]",
COc1ccc(-c2c[n+]3c4n2CCCCC4=C(c2ccccc2)C3)cc1,"inconclusive [inhibitor, partial curve, poor fit]",
O=C(O)c1cccc(COc2ccc3c(c2)CCC3)c1,"inconclusive [inhibitor, full curve, poor fit]",
Cc1ccc(C)c(OCCC(=O)OCC(=O)Nc2ccc(C)c(S(=O)(=O)N3CCCCC3)c2)c1,"inconclusive [inhibitor, single point]",
Cc1cccc(OCCC(=O)N(C)CC(=O)Nc2cccc3ccccc23)c1,"inconclusive [inhibitor, partial curve, poor fit]",

SMILES,Potency,"activity change, negative = inhibition"
CN(CC(=O)Nc1ccc(Cl)c(C(F)(F)F)c1)C(=O)c1cccc(N2C(=O)CCC2=O)c1,"inconclusive [inhibitor, single point]",
COc1ccc(C2(O)CC3CCC(C2)N3c2nc(C)cc(C)c2C#N)cc1 (stereo not drawn),"inconclusive [inhibitor, partial curve]",
CCCc1cc(=O)[nH]c(Nc2ccc(N3CCCCC3)cc2)n1,"inconclusive [inhibitor, partial curve, poor fit]",
CCOc1cc(/C=N/O)cc(Br)c1OCc1ccc(Cl)cc1,"inconclusive [inhibitor, single point]",
C=CCOc1ccc(C(=O)/C=C2/C(=O)Nc3ccccc32)cc1,"inconclusive [inhibitor, full curve, poor fit]",
C=C(C)C1CC=C(C)/C(=N/Nc2ccccc2[N+](=O)[O-])C1 (stereo not drawn),inactive,
COC(=O)c1cc(Sc2c(Cl)cccc2Cl)ccn1,,inconclusive: -36.9% [inhibitor]
CC1=C/C(=N\OS(=O)(=O)c2ccccc2)C(C(C)C)=CC1=O,"inconclusive [inhibitor, single point]",
CCOc1cc(C(=O)Nc2cccc3cccnc23)cc(OCC)c1OCC,"inconclusive [inhibitor, single point]",
Cc1ccc(C(=O)c2ccccc2C(=O)OCC(=O)N2C(C)CCCC2C)cc1 (stereo not drawn),"inconclusive [inhibitor, single point]",
COc1ccc(Cl)cc1NC(=O)c1ccc2c(c1)CCN2S(C)(=O)=O,"inconclusive [inhibitor, single point]",
CCC(CC)COC(=O)C1=C(C)NC(=O)NC1c1ccc([N+](=O)[O-])cc1 (stereo not drawn),"inconclusive [inhibitor, single point]",
Cc1cc(Br)ccc1NC(=S)NCCc1ccccc1,"inconclusive [inhibitor, partial curve, poor fit]",
Cc1ccc(C(c2nc3ccccc3[nH]2)n2c(-c3ccccc3)nc3ccccc32)cc1 (stereo not drawn),inactive,
COc1cccc(Nc2sc(C(=O)c3ccc(Cl)cc3)c(N)c2C(=O)NCc2ccc(C)cc2)c1,"inconclusive [inhibitor, single point]",
COc1ccccc1C(=O)NCCC(=O)Nc1ccc(S(=O)(=O)N2CC(C)CC(C)C2)cc1 (stereo not drawn),"inconclusive [inhibitor, partial curve, poor fit]",
COc1ccc2oc(C(=O)OCC(=O)N(C)Cc3ccccc3)c(C)c2c1,"inconclusive [inhibitor, single point]",
CCOC(=O)CN(Cc1ccccc1)C(C(=O)NC1CCCCC1)c1ccc(OC)cc1 (stereo not drawn),inactive,
COc1ccccc1CCNC(=O)c1cccc(S(=O)(=O)NCc2ccccc2)c1,"inconclusive [inhibitor, single point]",
O=C(NCCc1ccccc1)C1CCN(Cc2cc3ccccc3n2Cc2cccc(Cl)c2)CC1,"inconclusive [inhibitor, single point]",
O=C(OCc1ccccc1)N1CCC2CC1c1cc(-c3cc4ccccc4o3)ccc12 (stereo not drawn),inactive,

SMILES,Potency,"activity change, negative = inhibition"
CCOc1ccc(NS(=O)(=O)c2cc(NC(=O)c3cccc(C)c3)ccc2Cl)cc1,"inconclusive [inhibitor, partial curve, poor fit]",
Cc1cc(Cl)ccc1C(O)c1ncc(-c2cccc3ccccc23)[nH]1 (stereo not drawn),"inconclusive [inhibitor, single point]",
CC(C)NC(=O)C1(C)CCCN1Cc1csc2ccccc12 (stereo not drawn),inactive,
COc1cccc(OCc2nc3ccccc3[nH]2)c1,"inconclusive [inhibitor, single point]",
COc1ccc(C(CNS(=O)(=O)c2cccc(F)c2)N2CCCC2)cc1 (stereo not drawn),"inconclusive [inhibitor, partial curve]",
COc1ccccc1N1CC(C)(C)C(=O)N(C(=O)c2c(F)cccc2Cl)C1=S,"inconclusive [inhibitor, partial curve]",
Cc1noc(C)c1C(=O)OCC(=O)NC(=O)c1ccc(C(C)(C)C)cc1,inactive,
CC(O)(c1ccc(F)c(F)c1)c1nc(-c2ccc(F)c(Cl)c2)cs1 (stereo not drawn),"inconclusive [inhibitor, single point]",
CCOc1ncccc1C(=O)OCC(=O)NCc1cccs1,inactive,
O=C(NNc1ccc(Cl)cc1)C1CCC1,"inconclusive [inhibitor, full curve, poor fit]",
O=C(OCC(=O)N1CCN(C(=O)c2ccco2)CC1)c1ccccc1OCc1ccc(Cl)cc1,"inconclusive [inhibitor, partial curve]",
CC1CCN(S(=O)(=O)c2ccc3c(c2)c(=O)c(C(=O)NC(C)c2ccccc2)cn3C)CC1 (stereo not drawn),inactive,
CCCCCOC(=O)Nc1nnc(CCCCC)s1,"inconclusive [inhibitor, single point]",
COc1ccc(CNC(=O)C2(CC3CC(c4ccccc4)=NO3)CCNCC2)cc1 (stereo not drawn),"inconclusive [inhibitor, partial curve, poor fit]",
CC(NC(=S)Nc1ccc(OC(F)F)cc1OC(F)F)C(C)(C)C (stereo not drawn),"inconclusive [inhibitor, partial curve, poor fit]",
NS(=O)(=O)c1ccc(CCNc2ncnc3c2cnn3-c2cccc(Cl)c2)cc1,"inconclusive [inhibitor, single point]",
COc1ccc(NC(=O)CC(c2ccco2)C(C)C)cc1 (stereo not drawn),"inconclusive [inhibitor, partial curve, poor fit]",
CCOC(=O)C1=NN(c2ccc(Cl)cc2)C(c2ccccc2)CC1=O (stereo not drawn),"inconclusive [inhibitor, partial curve, poor fit]",
OC(c1ccccc1)c1nccc2ccccc12 (stereo not drawn),"inconclusive [inhibitor, single point]",
Cc1ccc(NC(=O)C(c2ccccc2)C2CCCC2)cc1 (stereo not drawn),"inconclusive [inhibitor, partial curve, poor fit]",
O=C(NCc1ccccc1Cl)c1ccc2c(c1)N(Cc1ccccc1)C(=O)CS2,"inconclusive [inhibitor, partial curve, poor fit]",
